The supplement of paper PMC9446081
In all, about 39,000 compounds went through this assay and about 220 (0.56%) showed activity. The list shows a part of the results.
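Also: static incubation at 37 °C against the wild-type strain, values averaged over two biological replicates.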

These molecules were tested on Escherichia coli K-12 BW25113 (assay: relative growth (OD600 normalised to plate interquartile mean) (fraction); higher = less growth inhibition, active = 0.2 or less). Conditions: 50 µM; LB; incubation time: overnight (16-24 h).
`CC(C)NC(=O)N(C)C[C@@H]1Oc2ccc(NS(=O)(=O)c3cn(C)cn3)cc2C(=O)N([C@@H](C)CO)C[C@@H]1C` was tested, and the relative growth was inactive: 0.996. For `C[C@H](CO)N1C[C@H](C)[C@@H](CN(C)C(=O)c2ccc(F)cc2)OCc2ccccc2-c2c(n(C)c3ccccc23)C1=O`, the relative growth was inactive: 0.984. `Cc1ccc(S(=O)(=O)Nc2ccc3c(c2)CC(=O)N([C@@H](C)CO)C[C@@H](C)[C@@H](CN(C)C(=O)Nc2cccc4ccccc24)O3)cc1` was tested, and the relative growth was inactive: 1. `Cc1ccc(S(=O)(=O)N(C)C[C@H]2Oc3c(NC(=O)C4CC4)cccc3C(=O)N([C@@H](C)CO)C[C@@H]2C)cc1` was tested, and the relative growth was inactive: 0.983. In the case of `Cc1noc(C)c1NC(=O)Nc1ccc2c(c1)CC(=O)N([C@@H](C)CO)C[C@H](C)[C@H](CN(C)CC1CC1)O2`, the relative growth is reported as inactive: 0.981. With `Cc1ccc(S[C@]2(C(=O)NCCN3CCOCC3)CC(=O)N(Cc3ccccc3Cl)[C@@H]2c2ccc(CO)cc2I)cc1` the relative growth was inactive: 0.992. In the case of `CCCNC(=O)Nc1ccc2c(c1)OC[C@@H](C)N(C(=O)C1CCOCC1)C[C@@H](C)[C@@H](OC)CN(C)C2=O`, the relative growth is reported as inactive: 0.996. `COc1cccc(NC(=O)N2C[C@H](O)COC[C@@H]3O[C@@H](CC(=O)NCCCN4CCOCC4)CC[C@H]32)c1` was tested, and the relative growth was inactive: 0.985. For `O=C(C[C@H]1CC[C@@H]2[C@H](COC[C@H](O)CN2C(=O)c2ccc3c(c2)OCO3)O1)NCCN1CCCC1`, the relative growth was inactive: 0.989. With `Cc1noc(C)c1S(=O)(=O)N(C)C[C@@H]1Oc2c(NS(=O)(=O)c3cn(C)cn3)cccc2C(=O)N([C@H](C)CO)C[C@H]1C` the relative growth was inactive: 0.996. In the case of `C[C@H](CO)N1C[C@H](C)[C@H](CN(C)Cc2ccc(C(F)(F)F)cc2)OCCCC[C@H](C)Oc2ccc(NC(=O)C3CCCCC3)cc2C1=O`, the relative growth is reported as inactive: 1.01. In the case of `N[C@@H](Cn1ccnc1)c1ccccc1`, the relative growth is reported as inactive: 1.03. For `C[C@@H]1CCCCO[C@@H](CN(C)Cc2ccc(C(=O)O)cc2)[C@@H](C)CN([C@H](C)CO)C(=O)c2cc(NC(=O)C3CCCCC3)ccc2O1`, the relative growth was inactive: 1.02. `C[C@@H]1CN([C@@H](C)CO)C(=O)c2cc(NC(=O)Nc3ccccc3)ccc2O[C@H]1CN(C)Cc1ccc(-c2ccccc2)cc1` was tested, and the relative growth was inactive: 1.02. For `C[C@H]1CN([C@@H](C)CO)C(=O)c2cc(NC(=O)Nc3ccc(C(F)(F)F)cc3)ccc2O[C@H]1CN(C)C(=O)Nc1ccc(C(F)(F)F)cc1`, the relative growth was inactive: 1.02. `COc1ccc(CNC(=O)C[C@@H]2CC[C@H]3[C@@H](COc4ccc(NC(=O)C(C)C)cc4C(=O)N3C)O2)cc1` was tested, and the relative growth was inactive: 0.99. `COc1ccc(CN(C)C[C@@H]2OCCCC[C@H](C)Oc3ccc(NC(=O)Nc4ccc(F)cc4)cc3C(=O)N([C@@H](C)CO)C[C@H]2C)cc1` was tested, and the relative growth was inactive: 1.01. In the case of `C[C@@H]1CN([C@H](C)CO)C(=O)Cc2cc(NS(=O)(=O)c3ccccc3)ccc2O[C@@H]1CN(C)Cc1ccc(-c2ccccc2)cc1`, the relative growth is reported as inactive: 0.998. `C[C@H](CO)N1C[C@H](C)[C@H](CN(C)S(=O)(=O)c2ccc(F)cc2)OCCCC[C@H](C)Oc2ccc(NC(=O)Nc3cccc4ccccc34)cc2C1=O` was tested, and the relative growth was inactive: 1.04. In the case of `CN(C)C(=O)CN1C[C@@H]2CCN(C(=O)[C@H]3CCCO3)CC[C@H]2S1(=O)=O`, the relative growth is reported as inactive: 0.982. With `C[C@H](CO)N1C[C@H](C)[C@@H](CN(C)Cc2ccc(Cl)c(Cl)c2)OCCCC[C@H](C)Oc2ccc(NC(=O)c3ccccc3)cc2C1=O` the relative growth was inactive: 0.966. `N#CCCn1nc2c(c1N)CCC2` was tested, and the relative growth was inactive: 1.01. In the case of `C[C@@H]1CN([C@@H](C)CO)S(=O)(=O)c2ccc(C#CCN(C)C)cc2O[C@H]1CN(C)S(C)(=O)=O`, the relative growth is reported as inactive: 1.01. With `C[C@H]1CN([C@@H](C)CO)S(=O)(=O)c2ccc(-c3cncnc3)cc2O[C@@H]1CN(C)C(=O)Cc1ccncc1` the relative growth was inactive: 0.977. With `O=C(O)CCC(=O)NCc1cccnc1` the relative growth was inactive: 1. In the case of `CC(C)NC(=O)N(C)C[C@H]1Oc2cc(C#Cc3ccc(F)cc3)ccc2S(=O)(=O)N([C@@H](C)CO)C[C@@H]1C`, the relative growth is reported as inactive: 0.99. For `O=S1(=O)N[C@H](c2ccccc2)CO1`, the relative growth was inactive: 1.02. For `Cc1ccccc1OC[C@@H](O)CO`, the relative growth was inactive: 1.01. For `CCC(C)CCCCC(=O)NC(CCN)C(=O)NC(C(=O)NC(CCN)C(=O)NC1CCNC(=O)C(C(C)O)NC(=O)C(CCN)NC(=O)C(CCN)NC(=O)C(CC(C)C)NC(=O)C(Cc2ccccc2)NC(=O)C(CCN)NC1=O)C(C)O.O=S(=O)(O)O` (centres undefined), the relative growth was active: 0.0419. With `C[C@@H]1CN([C@@H](C)CO)C(=O)c2cc(NC(=O)Nc3ccccc3)ccc2O[C@@H](C)CCCCO[C@H]1CN(C)S(=O)(=O)c1ccc(Cl)cc1` the relative growth was inactive: 0.985. For `N[C@H](C(=O)O)[C@H](O)c1ccc(O)c(O)c1`, the relative growth was inactive: 0.984. For `O=C(C[C@H]1CC[C@@H]2[C@H](COC[C@H](O)CN2C(=O)Nc2cccc(Cl)c2)O1)NCc1ccccc1F`, the relative growth was inactive: 1.02. With `COCCNC(=O)C[C@H]1CC[C@@H]2[C@H](COC[C@@H](O)CN2C(=O)Nc2ccccc2OC)O1` the relative growth was inactive: 0.99. In the case of `CCN1C(=O)C[C@@H]2[C@@H]1CCN2S(=O)(=O)c1cn(C)cn1`, the relative growth is reported as inactive: 0.992. In the case of `CN1C(=O)c2cc(NC(=O)Cc3cccs3)ccc2OC[C@H]2O[C@H](CC(=O)NCCc3ccncc3)CC[C@H]21`, the relative growth is reported as inactive: 0.998. `C[C@@H]1CN([C@H](C)CO)C(=O)c2cc(NC(=O)Nc3cccc4ccccc34)ccc2O[C@@H]1CN(C)S(=O)(=O)c1ccc(Cl)cc1` was tested, and the relative growth was inactive: 0.982. For `C[C@@H]1CN([C@@H](C)CO)S(=O)(=O)c2ccc(C#Cc3cccnc3)cc2O[C@@H]1CN(C)C(=O)CN(C)C`, the relative growth was inactive: 0.996. With `COc1ccc(S(=O)(=O)N(C)C[C@@H]2Oc3ccc(NS(=O)(=O)c4ccc(C)cc4)cc3CC(=O)N([C@@H](C)CO)C[C@H]2C)cc1` the relative growth was inactive: 1.01. With `C[C@H](CO)N1C[C@H](C)[C@H](CN(C)S(C)(=O)=O)Oc2c(NC(=O)c3cnccn3)cccc2C1=O` the relative growth was inactive: 0.995.
